Test results as given in the GPR68 mutational scans of Howard et al. (2025).
Scores whose standard error is large were omitted. The source holds two more conditions with little spread; they are left out. Read del as a deletion of the residues named and ins as an insertion between two positions. For some of these results: The concentration of ogerin is not given here.

B1: GPR68, Q15743 (parent)
chain: MGNITADNSSMSCTIDHTIHQTLAPVVYVTVLVVGFPANCLSLYFGYLQIKARNELGVYLCNLTVADLFYICSLPFWLQYVLQHDNWSHGDLSCQVCGILLYENIYISVGFLCCISVDRYLAVAHPFRFHQFRTLKAAVGVSVVIWAKELLTSIYFLMHEEVIEDENQHRVCFEHYPIQAWQRAINYYRFLVGFLFPICLLLASYQGILRAVRRSHGTQKSRKDQIQRLVLSTVVIFLACFLPYHVLLLVRSVWEASCDFAKGVFNAYHFSLLLTSFNCVADPVLYCFVSETTHRDLARLRGACLAFLTCSRTGRAREAYPLGAPEASGKSGAQGEEPELLTKLHPAFQTPNSPGSGGFPTGRLA

What was measured:
[1] = variants of: B1; experiment: cAMP reporter score (Enrich2 score, wild type = 0); higher = more signal; HEK293T, FACS bins
[2] = variants of: B1; experiment: surface expression score (Enrich2 score, wild type = 0); higher = more signal; HEK293T, FACS bins

| Variant | cAMP reporter score ([1]; pH 5.5) | cAMP reporter score ([1]; pH 6) | cAMP reporter score ([1]; pH 6, modulator: ogerin) | cAMP reporter score ([1]; pH 6.5, modulator: ogerin) | surface expression score [2] |
| --- | --- | --- | --- | --- | --- |
| MGNITADNSSMSCTIDHTIHQTLAPVVYVTVLVVGFPANCLSLYFGYLQIKARNELGVYLCNLTVADLFYICSLPFWLQYVLQVDNWSHGDLSCQVCGILLYENIYISVGFLCCISVDRYLAVAHPFRFHQFRTLKAAVGVSVVIWAKELLTSIYFLMHEEVIEDENQHRVCFEHYPIQAWQRAINYYRFLVGFLFPICLLLASYQGILRAVRRSHGTQKSRKDQIQRLVLSTVVIFLACFLPYHVLLLVRSVWEASCDFAKGVFNAYHFSLLLTSFNCVADPVLYCFVSETTHRDLARLRGACLAFLTCSRTGRAREAYPLGAPEASGKSGAQGEEPELLTKLHPAFQTPNSPGSGGFPTGRLA [H84V] | -0.873 | -0.838 | -2.05 | -0.97 | -0.062 |
| MGNITADNSSMSCTIDHTIHQTLAPVVYVTVLVVGFPANCLSLYFGYLQIKARNELGVYLCNLTVADLFYICSLPFWLQYVLQWDNWSHGDLSCQVCGILLYENIYISVGFLCCISVDRYLAVAHPFRFHQFRTLKAAVGVSVVIWAKELLTSIYFLMHEEVIEDENQHRVCFEHYPIQAWQRAINYYRFLVGFLFPICLLLASYQGILRAVRRSHGTQKSRKDQIQRLVLSTVVIFLACFLPYHVLLLVRSVWEASCDFAKGVFNAYHFSLLLTSFNCVADPVLYCFVSETTHRDLARLRGACLAFLTCSRTGRAREAYPLGAPEASGKSGAQGEEPELLTKLHPAFQTPNSPGSGGFPTGRLA [H84W] | -0.849 | -0.797 | -1.04 | -1.22 | -0.721 |
